The results in this text go back to the supplement of paper PMC8291772.

± gives the standard error. This is one part of the list.

Chain of UniProt P06526 (P06526 whole entry): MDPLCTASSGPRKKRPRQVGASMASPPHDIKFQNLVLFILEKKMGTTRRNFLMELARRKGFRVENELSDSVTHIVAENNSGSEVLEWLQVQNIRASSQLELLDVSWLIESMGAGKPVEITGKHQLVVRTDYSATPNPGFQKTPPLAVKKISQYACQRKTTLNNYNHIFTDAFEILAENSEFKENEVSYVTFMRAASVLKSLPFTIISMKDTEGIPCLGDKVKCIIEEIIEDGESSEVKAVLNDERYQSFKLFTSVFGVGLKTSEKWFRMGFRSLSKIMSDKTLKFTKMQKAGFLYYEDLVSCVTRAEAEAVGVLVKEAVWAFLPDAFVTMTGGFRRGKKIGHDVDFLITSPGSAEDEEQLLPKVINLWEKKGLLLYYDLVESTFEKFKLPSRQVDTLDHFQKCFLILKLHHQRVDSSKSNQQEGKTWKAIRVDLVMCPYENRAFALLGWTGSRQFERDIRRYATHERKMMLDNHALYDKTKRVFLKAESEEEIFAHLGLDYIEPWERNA

This assay addresses terminal deoxynucleotidyl transferase (calf thymus) (UniProt P06526). Description: TdT poly-dT extension signal (Cy3 hybridisation fluorescence, uncapped minus capped) (fluorescence a.u.); higher = more efficient initiation of TdT extension. The following applies: initiator chemistry: 2'-O-methyl-RNA, free 3'-OH (5'-tethered via HEG linker). The protocol:
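All mono- to pentamer 2'-O-methyl-RNA initiators were made by photolithographic in situ synthesis (3'-NPPOC amidites, reverse direction, free 3'-OH) on glass on a hexaethylene glycol linker. Each was made in uncapped and DMTr-dT-capped versions, about 11 replicates each. Arrays were extended with calf thymus TdT (0.2 U/uL), 100 uM dTTP and 0.25 mM CoCl2 for 120 min at 37 C, hybridised with an rA18-Cy3 probe and scanned at 532 nm. The value is the mean uncapped minus the mean capped signal. IDs are written 3'->5' and are reversed to 5'->3'; all nucleotides are 2'-OMe.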
Turning to GCUUU, the “TdT poly-dT extension signal” value stood at 241 ± 19.
For the sequence UGACC, the “TdT poly-dT extension signal” value amounted to 440 ± 21.
With GUCC, the “TdT poly-dT extension signal” value turned out to be 420 ± 38.
For the sequence AAGGU, the “TdT poly-dT extension signal” value came out at 522 ± 37.
Take CGCU: the “TdT poly-dT extension signal” value was found to be 427 ± 65.
The result for CCUAC reads 555 ± 31; that for GCCAU, 336 ± 25; that for UUCA, 382 ± 38.
Regarding CAAU, the “TdT poly-dT extension signal” value amounted to 578 ± 28.
Under GAAGU stands 560 ± 32; under CGGAC, 589 ± 55; under CAUAU, 313 ± 19.
On to AACUA, for which the “TdT poly-dT extension signal” value was 675 ± 34.
Under GCCCA stands 380 ± 39.
The result for AACCC reads 532 ± 43.
For UUUAG, the “TdT poly-dT extension signal” value is 219 ± 19.
The result for CGUA reads 437 ± 38; that for UCCGC, 1090 ± 36; that for CGCUA, 514 ± 42.
Under GGCGG stands 310 ± 26; under UAAAA, 1190 ± 120; under GUGA, 466 ± 30.
The result for CGUCC reads 446 ± 24.
For the sequence CAUGG, the “TdT poly-dT extension signal” value turned out to be 217 ± 15.
The result for UUGC reads 843 ± 100.
The result for AGGUU reads 260 ± 23.
In the case of GGGAU, the “TdT poly-dT extension signal” value was determined as 569 ± 54.
The result for UUGUG reads 124 ± 20; that for CGAGC, 1020 ± 61; that for UAAGC, 1190 ± 89.
Under CGCAC stands 915 ± 71.
For AUCUU, the “TdT poly-dT extension signal” value is 279 ± 18.
For the sequence AUUCA, the “TdT poly-dT extension signal” value is 256 ± 48.
Consider GCGA, for which the “TdT poly-dT extension signal” value was determined as 524 ± 40.
The result for ACUGA reads 458 ± 33; that for UAAUA, 555 ± 38; that for GGUCC, 480 ± 51.
In the case of GCCUU, the “TdT poly-dT extension signal” value came out at 413 ± 30.
For UCUGA, the “TdT poly-dT extension signal” value is 451 ± 45.
Take GUAA: the “TdT poly-dT extension signal” value came out at 501 ± 29.
Under CUUAA stands 575 ± 44; under AUGUA, 350 ± 27.
The result for GGGU reads 542 ± 35; that for CCACG, 296 ± 37.
The result for UAAGU reads 526 ± 23.
As for AGAGA, the “TdT poly-dT extension signal” value stood at 827 ± 77.
Under UCGG stands 302 ± 31.
As for CUCAU, the “TdT poly-dT extension signal” value is 442 ± 25.
Take UAGCA: the “TdT poly-dT extension signal” value was found to be 445 ± 20.
Under UACUC stands 455 ± 32; under UUUUA, 313 ± 20; under AAAAA, 1140 ± 80.
The result for GGCCA reads 326 ± 37.
The result for AAUCA reads 390 ± 17; that for CCAUC, 499 ± 61; that for GAGA, 676 ± 48.
Consider CACC, for which the “TdT poly-dT extension signal” value is 429 ± 42.
Under GAUA stands 432 ± 34; under CCUUU, 264 ± 11.
The result for CAUA reads 591 ± 27; that for CCCGG, 318 ± 31; that for UCCCA, 324 ± 20.
The result for ACAGU reads 558 ± 38; that for CCUUA, 372 ± 28; that for GGGGC, 1130 ± 68.
Consider CCCG, for which the “TdT poly-dT extension signal” value was found to be 312 ± 43.
Under CGUUG stands 147 ± 15; under UGGU, 453 ± 25; under GGGAG, 398 ± 23.
The result for GGUU reads 299 ± 18; that for ACCGU, 480 ± 36.
Under AGAUC stands 420 ± 47; under UCGUG, 242 ± 15.
For GAUAC, the “TdT poly-dT extension signal” value amounted to 516 ± 47.
The result for UCUCU reads 263 ± 43; that for UGAUC, 406 ± 17.
As for CGAAA, the “TdT poly-dT extension signal” value was 972 ± 71.
UAUCC: the “TdT poly-dT extension signal” value came out at 354 ± 29.
The result for UGGGU reads 490 ± 14; that for AAUUG, 181 ± 17.
As for GAAGC, the “TdT poly-dT extension signal” value is 1060 ± 81.
Under UUCG stands 159 ± 17; under UGCUA, 564 ± 47.
On to ACGAG, for which the “TdT poly-dT extension signal” value turned out to be 518 ± 62.
As for GCGAG, the “TdT poly-dT extension signal” value came out at 518 ± 44.
The result for GUGCU reads 344 ± 18.
The result for ACUUA reads 421 ± 35.
The result for AGGCA reads 374 ± 33; that for CGAUG, 257 ± 30; that for CAUC, 460 ± 29.
With UUAUC, the “TdT poly-dT extension signal” value turned out to be 357 ± 23.
Under AAGGA stands 681 ± 42; under AACU, 306 ± 22; under CCCUC, 566 ± 40.
The result for CCCAU reads 552 ± 28.
In the case of UGUGG, the “TdT poly-dT extension signal” value was 222 ± 21.
The result for UUUGC reads 1010 ± 63.
With CACUU, the “TdT poly-dT extension signal” value stood at 378 ± 26.
The result for UUCCG reads 175 ± 30; that for UGAGU, 486 ± 72; that for ACUA, 511 ± 44.
In the case of AGCG, the “TdT poly-dT extension signal” value was determined as 341 ± 47.
The result for UACG reads 231 ± 24; that for ACAGA, 899 ± 79.
On to UUUA, for which the “TdT poly-dT extension signal” value was 338 ± 29.
In the case of UGUUA, the “TdT poly-dT extension signal” value was 348 ± 45.
Under UUUU stands 208 ± 14.
Under AUCAC stands 729 ± 63.
For CUAUC, the “TdT poly-dT extension signal” value amounted to 340 ± 27.
Under AAGAC stands 775 ± 54; under AAACG, 329 ± 32; under GUCA, 308 ± 23.
The result for AGUA reads 459 ± 57.
With UAAC, the “TdT poly-dT extension signal” value is 542 ± 42.
In the case of CGUAA, the “TdT poly-dT extension signal” value was 556 ± 43.
Consider CCCUG, for which the “TdT poly-dT extension signal” value came out at 274 ± 14.
Under AGGGC stands 1120 ± 71; under GUGC, 1030 ± 70.
